1 molecule from publication PMC10657365, “Loss of SMURF2 expression enhances RACK1 stability and promotes ovarian cancer progression” (Cell Death and Differentiation, 2023) can be followed below.

The experiment addresses Myc-tagged full-length (FL) RACK1 (UniProt P63244). The experiment is described as follows: pull-down; GST, GST-SMURF2 or GST-SMURF2 C716A on glutathione-Sepharose 4B beads mixed with Myc-RACK1 for 2 h at 4 °C, washed with GST binding buffer, immunoblot. The note with it: both partners purified. (Immunoblotting shows a protein as a band on a membrane.)

B1: GST-SMURF2 C716A (enzyme)
chain: not shown
notes: SMURF2 with C716A, as a GST fusion; source: E. coli BL21 (DE3), purified on glutathione-Sepharose 4B
As to B1, the binding result is reported as “binds”.
